Results from the supplement of paper PMC12645437, “Orthogonal IMiD-Degron Pairs Induce Selective Protein Degradation in Cells” (ACS Chemical Biology, 2025).
This is one part of the list.

B1: Q9UKT9 (peptide)
chain: FVCPICGAYFTQKGNLLRHIKL
B2: Q9UKT9 (peptide)
chain: FTCPICGREFTQKGNLLRHIKL
B3: Q9UKT9 (peptide)
chain: FGCPVCGAFFTQKGNLLRHIKL
B4: Q9UKT9 (peptide)
chain: FECPVCGALFTQKGNLLRHIKL
B5: Q9UKT9 (peptide)
chain: FICEICGACFTQKGNLLRHIKL
B6: Q9UKT9 (peptide)
chain: FNCPICGHFFTQKGNLLRHIKL
B7: Q9UKT9 (peptide)
chain: FHCEQCGAYFTQKGNLLRHIKL
B8: Q9UKT9 (peptide)
chain: FWCEVCGACFTQKGNLLRHIKL
B9: Q9UKT9 (peptide)
chain: FCCEICGHHFTQKGNLLRHIKL
B10: Q9UKT9 (peptide)
chain: FGCPICGADFTQKGNLLRHIKL
B11: Q9UKT9 (peptide)
chain: FHCPICGANFTQKGNLLRHIKL
B12: Q9UKT9 (peptide)
chain: FMCPICGRSFTQKGNLLRHIKL
B13: Q9UKT9 (peptide)
chain: FICSVCGHPFTQKGNLLRHIKL
B14: Q9UKT9 (peptide)
chain: FVCNQCGRIFTQKGNLLRHIKL
B15: Q9UKT9 (peptide)
chain: LYCPICGFICTQKGNLLRHIKL
B16: Q9UKT9 (peptide)
chain: FCCNQCGAVFTQKGNLLRHIKL
B17: Q9UKT9 (peptide)
chain: FTCEICGRPFTQKGNLLRHIKL
B18: Q9UKT9 (peptide)
chain: FFCNVCGAIFTQKGNLLRHIKL
B19: Q9UKT9 (peptide)
chain: FHCDQCGAMFTQKGNLLRHIKL
B20: Q9UKT9 (peptide)
chain: FLCPICGHMFTQKGNLLRHIKL
B21: Q9UKT9 (peptide)
chain: FWCEICGRNFTQKGNLLRHIKL
B22: Q9UKT9 (peptide)
chain: FYCEICGAFFTQKGNLLRHIKL
B23: Q9UKT9 (peptide)
chain: FECDQCGAIFTQKGNLLRHIKL
B24: Q9UKT9 (peptide)
chain: FTCDQCGALFTQKGNLLRHIKL
B25: Q9UKT9 (peptide)
chain: FCCPICGAGFTQKGNLLRHIKL
B26: Q9UKT9 (peptide)
chain: FGCEICGAKFTQKGNLLRHIKL
B27: Q9UKT9 (peptide)
chain: FDCEICGRRFTQKGNLLRHIKL
B28: Q9UKT9 (peptide)
chain: FICNVCGATFTQKGNLLRHIKL
B29: Q9UKT9 (peptide)
chain: FKCPICGHVFTQKGNLLRHIKL
B30: Q9UKT9 (peptide)
chain: FMCNQCGRTFTQKGNLLRHIKL
B31: Q9UKT9 (peptide)
chain: FGCDICGATFTQKGNLLRHIKL
B32: Q9UKT9 (peptide)
chain: FRCEICGANFTQKGNLLRHIKL
B33: Q9UKT9 (peptide)
chain: FTCEQCGAGFTQKGNLLRHIKL
B34: Q9UKT9 (peptide)
chain: FDCDVCGAGFTQKGNLLRHIKL
B35: Q9UKT9 (peptide)
chain: FSCPICGRKFTQKGNLLRHIKL
B36: Q9UKT9 (peptide)
chain: FMCPICGRAFTQKGNLLRHIKL
B37: Q9UKT9 (peptide)
chain: FLCEICGRDFTQKGNLLRHIKL
B38: Q9UKT9 (peptide)
chain: FECPVCGAFFTQKGNLLRHIKL
B39: Q9UKT9 (peptide)
chain: LWCNQCGFSCTQKGNLLRHIKL
B40: Q9UKT9 (peptide)
chain: FKCNICGAPFTQKGNLLRHIKL
B41: Q9UKT9 (peptide)
chain: FFCNQCGHDFTQKGNLLRHIKL
B42: Q9UKT9 (peptide)
chain: FKCPICGHTFTQKGNLLRHIKL
B43: Q9UKT9 (peptide)
chain: FWCPICGRMFTQKGNLLRHIKL
B44: Q9UKT9 (peptide)
chain: FFCEICGHEFTQKGNLLRHIKL
B45: Q9UKT9 (peptide)
chain: FSCPICGAAFTQKGNLLRHIKL
B46: Q9UKT9 (peptide)
chain: FNCDQCGAIFTQKGNLLRHIKL
B47: Q9UKT9 (peptide)
chain: LSCPICGFMCTQKGNLLRHIKL
B48: Q9UKT9 (peptide)
chain: FLCNQCGRLFTQKGNLLRHIKL
B49: Q9UKT9 (peptide)
chain: FQCNQCGHWFTQKGNLLRHIKL
B50: Q9UKT9 (peptide)
chain: FGCPVCGAMFTQKGNLLRHIKL
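Also: jurkat cells carrying a lentiviral library of mutant zinc finger degrons fused to EGFP plus mCherry, mCherry+ cells FACS sorted, degron abundance counted by next-generation sequencing.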

The sequences below were run against no compound (DMSO) (assay: log2 fold change of degron read counts, EGFP-low vs EGFP+ sorted cells; higher = lower degron-EGFP level without compound (poor expression or instability)). Conditions: compound: DMSO control; 18 h.
In the case of B1, the “log2 fold change of degron read counts” value is reported as 0.919.
B2 was tested, and the “log2 fold change of degron read counts” value was -0.238.
B3 was tested, and the “log2 fold change of degron read counts” value was 0.705.
In the case of B4, the “log2 fold change of degron read counts” value is reported as -1.12.
In the case of B5, the “log2 fold change of degron read counts” value is reported as -1.83.
For B6, the “log2 fold change of degron read counts” value was 0.625.
For B7, the “log2 fold change of degron read counts” value was -0.847.
B8 was tested, and the “log2 fold change of degron read counts” value was -0.93.
For B9, the “log2 fold change of degron read counts” value was -2.05.
With B10 the “log2 fold change of degron read counts” value was -0.43.
With B11 the “log2 fold change of degron read counts” value was -0.0257.
B12 was tested, and the “log2 fold change of degron read counts” value was 0.0664.
With B13 the “log2 fold change of degron read counts” value was -0.0295.
With B14 the “log2 fold change of degron read counts” value was 0.664.
With B15 the “log2 fold change of degron read counts” value was 1.81.
B16 was tested, and the “log2 fold change of degron read counts” value was 0.0534.
In the case of B17, the “log2 fold change of degron read counts” value is reported as -1.7.
For B18, the “log2 fold change of degron read counts” value was 0.413.
For B19, the “log2 fold change of degron read counts” value was -1.46.
With B20 the “log2 fold change of degron read counts” value was 0.351.
In the case of B21, the “log2 fold change of degron read counts” value is reported as -0.181.
B22 was tested, and the “log2 fold change of degron read counts” value was 0.556.
With B23 the “log2 fold change of degron read counts” value was -1.76.
For B24, the “log2 fold change of degron read counts” value was -0.986.
With B25 the “log2 fold change of degron read counts” value was -0.544.
For B26, the “log2 fold change of degron read counts” value was -1.31.
For B27, the “log2 fold change of degron read counts” value was -1.53.
In the case of B28, the “log2 fold change of degron read counts” value is reported as -0.57.
With B29 the “log2 fold change of degron read counts” value was -0.512.
In the case of B30, the “log2 fold change of degron read counts” value is reported as -0.48.
For B31, the “log2 fold change of degron read counts” value was -1.93.
In the case of B32, the “log2 fold change of degron read counts” value is reported as -1.17.
B33 was tested, and the “log2 fold change of degron read counts” value was -1.86.
With B34 the “log2 fold change of degron read counts” value was -1.29.
With B35 the “log2 fold change of degron read counts” value was -1.6.
In the case of B36, the “log2 fold change of degron read counts” value is reported as 0.221.
For B37, the “log2 fold change of degron read counts” value was -1.59.
For B38, the “log2 fold change of degron read counts” value was -1.15.
In the case of B39, the “log2 fold change of degron read counts” value is reported as 1.66.
B40 was tested, and the “log2 fold change of degron read counts” value was -0.474.
With B41 the “log2 fold change of degron read counts” value was -0.869.
In the case of B42, the “log2 fold change of degron read counts” value is reported as -1.17.
With B43 the “log2 fold change of degron read counts” value was 0.675.
B44 was tested, and the “log2 fold change of degron read counts” value was -2.
B45 was tested, and the “log2 fold change of degron read counts” value was -0.0155.
For B46, the “log2 fold change of degron read counts” value was -1.19.
B47 was tested, and the “log2 fold change of degron read counts” value was 0.772.
B48 was tested, and the “log2 fold change of degron read counts” value was 0.343.
In the case of B49, the “log2 fold change of degron read counts” value is reported as -0.282.
With B50 the “log2 fold change of degron read counts” value was -0.133.
